According to the supplement of paper PMC3334620:
Whole data set: some 33,000 sequences, median “E-score (-0.5 to 0.5)” near -0.054, cut for the highest 2% near 0.35. This is one part of the list.

These sequences were tested against T1, Stb5 (UniProt P38699) (assay: PBM E-score (8-mer binding enrichment) (E-score (-0.5 to 0.5)); higher = stronger / more preferred TF binding; most listed sequences are background and not binding sites). Conditions: protein concentration: 200 nM; construct: GST-full length.
T1 sequence: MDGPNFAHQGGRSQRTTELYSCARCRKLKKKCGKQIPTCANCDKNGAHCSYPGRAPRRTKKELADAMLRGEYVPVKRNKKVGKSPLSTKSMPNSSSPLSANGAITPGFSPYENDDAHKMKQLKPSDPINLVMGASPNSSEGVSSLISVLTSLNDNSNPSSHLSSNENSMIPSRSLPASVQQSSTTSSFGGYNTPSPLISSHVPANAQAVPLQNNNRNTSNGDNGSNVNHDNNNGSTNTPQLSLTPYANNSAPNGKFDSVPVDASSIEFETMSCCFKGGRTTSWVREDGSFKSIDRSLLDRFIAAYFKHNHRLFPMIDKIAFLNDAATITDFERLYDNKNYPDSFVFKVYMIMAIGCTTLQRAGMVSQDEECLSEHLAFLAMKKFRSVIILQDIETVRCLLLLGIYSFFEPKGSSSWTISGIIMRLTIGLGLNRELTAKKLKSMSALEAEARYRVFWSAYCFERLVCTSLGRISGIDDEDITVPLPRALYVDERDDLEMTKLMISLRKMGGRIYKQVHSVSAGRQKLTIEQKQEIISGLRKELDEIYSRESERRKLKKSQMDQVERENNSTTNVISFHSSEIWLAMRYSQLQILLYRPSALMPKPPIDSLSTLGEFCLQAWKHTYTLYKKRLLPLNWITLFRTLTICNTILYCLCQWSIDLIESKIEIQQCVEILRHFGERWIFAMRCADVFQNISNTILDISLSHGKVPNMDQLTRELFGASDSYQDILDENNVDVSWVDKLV
Summary of the method: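 Masliner-normalised scans of fluorescent anti-GST signal were the basis for scoring. That signal came from GST-tagged yeast transcription factors applied at about 100-200 nM to double-stranded universal all-10-mer Agilent arrays on fresh or once-stripped slides. Each ungapped eight-base word, pooled with its reverse complement, received an E-score from the Universal PBM Analysis Suite.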

Going from ATACCAGA to AATCAGGC, the “PBM E-score” value rises from -0.177 to -0.0331.

Compared with GTTAAAGA, CAGTAGCA is lower in “PBM E-score” value: 0.166 for the first, -0.134 for the second.

First: GATTGAGC
Second: ACCCTCCT
The “PBM E-score” value of the first is higher: -0.0181 for the first, -0.0607 for the second.

Compared with CAGCCGTA, ATGGCGAG is lower in “PBM E-score” value: -0.0235 for the first, -0.242 for the second.

Compared with ACGTACGA, CACGATGA is higher in “PBM E-score” value: -0.155 for the first, -0.0249 for the second.

Compared with AGCCCGTG, AGTATGGA is lower in “PBM E-score” value: 0.174 for the first, -0.162 for the second.

Going from ATTTCGAC to GGGCCCAC, the “PBM E-score” value rises from -0.0273 to 0.00454.

First: ACCGCTCA
Second: AATTTGAT
The “PBM E-score” value of the first is higher: 0.256 for the first, -0.17 for the second.

First: CGTCGCTC
Second: CGGGAGTA
The “PBM E-score” value of the first is lower: -0.0435 for the first, 0.417 for the second.

First: GCAACAGC
Second: ACTCGGAA
The “PBM E-score” value of the first is lower: 0.0239 for the first, 0.0885 for the second.

Going from ACAACCGC to TTCAGCAA, the “PBM E-score” value falls from 0.222 to -0.256.

First: CCCCAATC
Second: TATCGGCA
The “PBM E-score” value of the first is lower: -0.148 for the first, 0.322 for the second.

Compared with CGTGGCCC, AATCTCGA is lower in “PBM E-score” value: 0.0342 for the first, -0.197 for the second.

Going from CGGATAAG to CGACTGCG, the “PBM E-score” value falls from 0.11 to 0.0873.

Going from GGGGTGCA to ACCATATA, the “PBM E-score” value falls from 0.0203 to -0.0817.

First: ACCCTAGT
Second: CGAAACAA
The “PBM E-score” value of the first is lower: -0.225 for the first, -0.0733 for the second.

Going from ACCAAATG to GTCATGAC, the “PBM E-score” value rises from -0.185 to -0.0238.

Going from AAGAGCGA to GCAATCCA, the “PBM E-score” value falls from -0.00753 to -0.0215.

Going from GAAACTCA to AGCCCAGG, the “PBM E-score” value falls from -0.116 to -0.342.

First: GACTTGTA
Second: TCCAGACA
The “PBM E-score” value of the first is higher: 0.0378 for the first, -0.188 for the second.

Going from CCTCCTCA to AACTGAGT, the “PBM E-score” value rises from -0.214 to 0.0456.

First: AATGGTAT
Second: AGACACGC
The “PBM E-score” value of the first is higher: -0.00968 for the first, -0.06 for the second.

Compared with GTAACTCA, GAGACGCC is higher in “PBM E-score” value: -0.189 for the first, 0.298 for the second.

First: ACACTGCG
Second: CAAACGGA
The “PBM E-score” value of the first is lower: 0.0399 for the first, 0.293 for the second.

Going from AAGGAGGG to CTACCTCC, the “PBM E-score” value rises from -0.272 to 0.0797.

Going from AAAGTGCA to AAAAAGGC, the “PBM E-score” value rises from -0.161 to 0.00678.

First: ACTGCCCT
Second: ACCCATAC
The “PBM E-score” value of the first is higher: -0.14 for the first, -0.231 for the second.

Compared with GGAGAAAC, TCACCGGA is higher in “PBM E-score” value: 0.0897 for the first, 0.343 for the second.

First: CCCCACAC
Second: CCCCTTTC
The “PBM E-score” value of the first is lower: -0.0314 for the first, -0.0301 for the second.

Going from ACATAGAT to CGCGGCGC, the “PBM E-score” value rises from 0.0166 to 0.318.

Compared with ATCGCTGA, CAAGAGAC is lower in “PBM E-score” value: -0.111 for the first, -0.146 for the second.

First: ATGTGATG
Second: ATCAAAGC
The “PBM E-score” value of the first is lower: -0.162 for the first, 0.0343 for the second.

First: TAGCTACA
Second: TAGCGAAA
The “PBM E-score” value of the first is lower: -0.255 for the first, -0.248 for the second.

Going from ACAGCTGT to TCGGCCGA, the “PBM E-score” value rises from -0.265 to 0.197.

Compared with AAGTCGAC, AGGAGCCC is higher in “PBM E-score” value: -0.208 for the first, 0.0224 for the second.

First: CCTCGGCG
Second: AACGGTCG
The “PBM E-score” value of the first is higher: 0.225 for the first, 0.202 for the second.

Going from TGGGCTAA to AAAAAAAG, the “PBM E-score” value rises from -0.227 to 0.0372.

Going from AAAACACA to CCTCAGTC, the “PBM E-score” value falls from -0.0864 to -0.204.

First: CTTCTTAA
Second: AAATGCTC
The “PBM E-score” value of the first is higher: -0.0379 for the first, -0.116 for the second.

First: AGGGCGCG
Second: AGCAATTC
The “PBM E-score” value of the first is higher: 0.0876 for the first, -0.00758 for the second.

Compared with GATGAAAA, CTTCAACA is lower in “PBM E-score” value: -0.0348 for the first, -0.115 for the second.

First: CGCCCGAA
Second: AAACTCAG
The “PBM E-score” value of the first is higher: 0.0009 for the first, -0.185 for the second.

Compared with CCACCATC, ATTCCATA is higher in “PBM E-score” value: -0.149 for the first, -0.111 for the second.

First: ACTAGGTC
Second: GATCGCCC
The “PBM E-score” value of the first is higher: 0.033 for the first, -0.13 for the second.

Compared with TCTTATCA, AATGTTTA is lower in “PBM E-score” value: 0.0228 for the first, -0.121 for the second.

Going from CGATTTAC to ATTACCCA, the “PBM E-score” value falls from 0.00852 to -0.176.

First: ACGAGCCG
Second: CGACGGCC
The “PBM E-score” value of the first is lower: -0.0642 for the first, 0.252 for the second.

First: ACAAGCTA
Second: TGAATTAA
The “PBM E-score” value of the first is lower: -0.36 for the first, -0.131 for the second.

Going from AGATTGGG to CCTTCACC, the “PBM E-score” value falls from -0.079 to -0.115.

Going from ACGGGGTG to ACCGTCCA, the “PBM E-score” value falls from 0.286 to 0.242.

First: CAACTATA
Second: AGGAATTC
The “PBM E-score” value of the first is higher: -0.0129 for the first, -0.317 for the second.

Compared with AAAACGCT, CACCGCGA is higher in “PBM E-score” value: -0.162 for the first, 0.37 for the second.

Compared with ATGCAGCA, CAACGGTG is higher in “PBM E-score” value: -0.171 for the first, 0.346 for the second.

Compared with AAAATTTC, ACGTCAAT is lower in “PBM E-score” value: 0.0457 for the first, -0.223 for the second.

First: CCCCCCGA
Second: ATGGTCCG
The “PBM E-score” value of the first is lower: 0.14 for the first, 0.215 for the second.

Going from GTCCTGCA to ACATTTCG, the “PBM E-score” value rises from -0.204 to 0.0112.

Compared with CAAGAAAC, ACATCAGT is lower in “PBM E-score” value: 0.0575 for the first, -0.12 for the second.

Compared with ATGCGGGC, ATGCACGC is lower in “PBM E-score” value: 0.087 for the first, -0.0459 for the second.

Going from CGTACAAC to AGTCGCAG, the “PBM E-score” value falls from -0.0258 to -0.0686.

First: TCCTACAA
Second: GGTTGGAA
The “PBM E-score” value of the first is lower: -0.175 for the first, -0.00682 for the second.

Compared with ACCAGGCT, GCCCCGTA is higher in “PBM E-score” value: -0.232 for the first, 0.233 for the second.

Compared with CAACCCAA, GGCCACTA is higher in “PBM E-score” value: -0.308 for the first, -0.0968 for the second.

First: TGCCCACA
Second: ATGAGTAG
The “PBM E-score” value of the first is lower: -0.0639 for the first, -0.0225 for the second.

First: ACGTTGTC
Second: CGAGACAG
The “PBM E-score” value of the first is higher: -0.138 for the first, -0.159 for the second.

First: GACCTATC
Second: CATGAGCG
The “PBM E-score” value of the first is higher: 0.0702 for the first, 0.0176 for the second.

Going from GCCCTAGA to AATAAACT, the “PBM E-score” value rises from -0.0867 to 0.0307.

First: GAAAGTTA
Second: AAGCACGC
The “PBM E-score” value of the first is higher: 0.0753 for the first, -0.0515 for the second.

First: CCATCATC
Second: AACGCTAG
The “PBM E-score” value of the first is lower: -0.257 for the first, -0.112 for the second.

Going from ACGTCTCT to CGATGTCA, the “PBM E-score” value rises from -0.174 to -0.14.

Going from TCCAGGCA to AGAACGAG, the “PBM E-score” value rises from -0.285 to -0.252.

First: ATATCAAC
Second: GCTCACAA
The “PBM E-score” value of the first is lower: -0.054 for the first, -0.0221 for the second.

First: ATATATAT
Second: CGTCCAAC
The “PBM E-score” value of the first is higher: 0.139 for the first, 0.00327 for the second.

Compared with ACCGCGTG, CTAGGCTC is lower in “PBM E-score” value: 0.218 for the first, -0.246 for the second.

First: AAGACACA
Second: GTCCCGAA
The “PBM E-score” value of the first is lower: -0.233 for the first, 0.121 for the second.

Going from ACCGGGTA to AAATATCT, the “PBM E-score” value falls from 0.227 to 0.0532.

Compared with CAGCATGA, AGGGTGGA is lower in “PBM E-score” value: -0.137 for the first, -0.277 for the second.

Compared with ACTTACGA, CAGTGTAG is lower in “PBM E-score” value: -0.0965 for the first, -0.263 for the second.

Going from ATAACCTC to ATAGTATG, the “PBM E-score” value falls from 0.0793 to -0.0801.

Compared with CACCCGCC, TAGGAGGA is lower in “PBM E-score” value: 0.204 for the first, -0.287 for the second.

First: CCCTGGCA
Second: ACCTCAAA
The “PBM E-score” value of the first is higher: -0.0609 for the first, -0.0791 for the second.

Compared with CGGGAAGC, GGAACTAC is higher in “PBM E-score” value: -0.0666 for the first, 0.118 for the second.

Going from GAAAAACA to GCTTTGCA, the “PBM E-score” value rises from -0.113 to -0.0804.

Compared with CTGGCGCA, CTTACGGC is higher in “PBM E-score” value: -0.19 for the first, 0.283 for the second.

First: CCGTCCTC
Second: AACCTTTA
The “PBM E-score” value of the first is higher: 0.189 for the first, -0.103 for the second.

First: AAACCGGA
Second: AACACCCC
The “PBM E-score” value of the first is higher: 0.196 for the first, 0.17 for the second.

Compared with CTTTTAGA, CCAAGTAA is lower in “PBM E-score” value: 0.11 for the first, -0.125 for the second.
